# Measurements reported in the supplement of paper PMC8728848.
# Some of the results follow.
# B1: Galatrox (Botrops atrox), P0DM53 (protein)
# chain: NNCPQDWLPMNGLCYKIFDELKAWKDAEMFCRKYKPGCHLASIILYGESPEWAEGHSEVWLGLWDKKKDFSWEWTDR
# How the values were obtained:
# Assay in all cases: glycan array binding signal (z-score within array); higher = stronger binding
# Details in all cases: glycan notation: IUPAC condensed, linker removed
# Fuc(a1-2)Gal = target: Fuc(a1-2)Gal
# Outline: (§1)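 The binding signal is a Z-score computed within each array and averaged over linkers. Arrays of the same protein sequence at different concentrations or buffers were also averaged together. Data originate from 3228 arrays in the Consortium for Functional Glycomics database, kept only where the protein sequence was available.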
# Fuc(a1-2)Gal(b1-3)GalNAc = target: Fuc(a1-2)Gal(b1-3)GalNAc
# Outline: as §1
# [1] = target: Fuc(a1-2)Gal(b1-3)GalNAc(a1-3)[Fuc(a1-2)]Gal(b1-4)Glc
# Outline: as §1
# [2] = target: Fuc(a1-2)Gal(b1-3)GalNAc(a1-3)[Fuc(a1-2)]Gal(b1-4)GlcNAc
# Outline: as §1
# [3] = target: Fuc(a1-2)Gal(b1-3)GalNAc(b1-3)Gal
# Outline: as §1
# [4] = target: Fuc(a1-2)Gal(b1-3)GalNAc(b1-3)Gal(a1-4)Gal(b1-4)Glc
# Outline: as §1
# [5] = target: Fuc(a1-2)Gal(b1-3)GalNAc(b1-4)[Neu5Ac(a2-3)]Gal(b1-4)Glc
# Outline: as §1
# Fuc(a1-2)Gal(b1-3)GlcNAc = target: Fuc(a1-2)Gal(b1-3)GlcNAc
# Outline: as §1
# [6] = target: Fuc(a1-2)Gal(b1-3)GlcNAc(b1-2)Man(a1-3)[Fuc(a1-2)Gal(b1-3)GlcNAc(b1-2)Man(a1-6)]Man(b1-4)GlcNAc(b1-4)GlcNAc
# Outline: as §1
# [7] = target: Fuc(a1-2)Gal(b1-3)GlcNAc(b1-3)Gal(b1-4)Glc
# Outline: as §1
# [8] = target: Fuc(a1-2)Gal(b1-3)GlcNAc(b1-3)[Fuc(a1-3)[Gal(b1-4)]GlcNAc(b1-6)]Gal(b1-4)Glc
# Outline: as §1
# [9] = target: Fuc(a1-2)Gal(b1-3)[Fuc(a1-4)]GlcNAc
# Outline: as §1
# [10] = target: Fuc(a1-2)Gal(b1-3)[Fuc(a1-4)]GlcNAc(b1-2)Man(a1-3)[Fuc(a1-2)Gal(b1-3)[Fuc(a1-4)]GlcNAc(b1-2)Man(a1-6)]Man(b1-4)GlcNAc(b1-4)GlcNAc
# Outline: as §1
# [11] = target: Fuc(a1-2)Gal(b1-3)[Fuc(a1-4)]GlcNAc(b1-3)[Fuc(a1-3)[Gal(b1-4)]GlcNAc(b1-6)]Gal(b1-4)Glc
# Outline: as §1
# [12] = target: Fuc(a1-2)Gal(b1-3)[Fuc(a1-4)]GlcNAc(b1-3)[Gal(b1-4)GlcNAc(b1-6)]Gal(b1-4)Glc
# Outline: as §1
# Fuc(a1-2)Gal(b1-4)Glc = target: Fuc(a1-2)Gal(b1-4)Glc
# Outline: as §1
# Fuc(a1-2)Gal(b1-4)Glc6S = target: Fuc(a1-2)Gal(b1-4)Glc6S
# Outline: as §1
# Fuc(a1-2)Gal(b1-4)GlcNAc = target: Fuc(a1-2)Gal(b1-4)GlcNAc
# Outline: as §1
# [13] = target: Fuc(a1-2)Gal(b1-4)GlcNAc(b1-2)Man(a1-3)[Fuc(a1-2)Gal(b1-4)GlcNAc(b1-2)Man(a1-6)]Man(b1-4)GlcNAc(b1-4)GlcNAc
# Outline: as §1
# [14] = target: Fuc(a1-2)Gal(b1-4)GlcNAc(b1-3)Gal(b1-4)GlcNAc
# Outline: as §1
# [15] = target: Fuc(a1-2)Gal(b1-4)GlcNAc(b1-3)Gal(b1-4)GlcNAc(b1-3)Gal(b1-4)GlcNAc
# Outline: as §1
# [16] = target: Fuc(a1-2)Gal(b1-4)GlcNAc(b1-3)GalNAc
# Outline: as §1
# [17] = target: Fuc(a1-2)Gal(b1-4)GlcNAc6S
# Outline: as §1
# [18] = target: Fuc(a1-2)Gal(b1-4)[Fuc(a1-3)]GlcNAc
# Outline: as §1
# [19] = target: Fuc(a1-2)Gal(b1-4)[Fuc(a1-3)]GlcNAc(b1-2)Man(a1-3)[Fuc(a1-2)Gal(b1-4)[Fuc(a1-3)]GlcNAc(b1-2)Man(a1-6)]Man(b1-4)GlcNAc(b1-4)GlcNAc
# Outline: as §1
# [20] = target: Fuc(a1-2)Gal(b1-4)[Fuc(a1-3)]GlcNAc(b1-3)Gal(b1-4)[Fuc(a1-3)]GlcNAc
# Outline: as §1
# [21] = target: Fuc(a1-2)Gal(b1-4)[Fuc(a1-3)]GlcNAc(b1-3)Gal(b1-4)[Fuc(a1-3)]GlcNAc(b1-3)Gal(b1-4)[Fuc(a1-3)]GlcNAc
# Outline: as §1
# Fuc(a1-2)Gal6S(b1-4)Glc = target: Fuc(a1-2)Gal6S(b1-4)Glc
# Outline: as §1
# [22] = target: Fuc(a1-2)Gal6S(b1-4)Glc6S
# Outline: as §1
# [23] = target: Fuc(a1-2)Gal6S(b1-4)GlcNAc
# Outline: as §1
# Fuc(a1-2)[Gal(a1-3)]Gal = target: Fuc(a1-2)[Gal(a1-3)]Gal
# Outline: as §1
# [24] = target: Fuc(a1-2)[Gal(a1-3)]Gal(b1-3)GlcNAc
# Outline: as §1
# [25] = target: Fuc(a1-2)[Gal(a1-3)]Gal(b1-3)GlcNAc(b1-2)Man(a1-3)[Fuc(a1-2)[Gal(a1-3)]Gal(b1-3)GlcNAc(b1-2)Man(a1-6)]Man(b1-4)GlcNAc(b1-4)GlcNAc
# Outline: as §1
# [26] = target: Fuc(a1-2)[Gal(a1-3)]Gal(b1-4)Glc
# Outline: as §1
# [27] = target: Fuc(a1-2)[Gal(a1-3)]Gal(b1-4)GlcNAc
# Outline: as §1
# [28] = target: Fuc(a1-2)[Gal(a1-3)]Gal(b1-4)GlcNAc(b1-2)Man(a1-3)[Fuc(a1-2)[Gal(a1-3)]Gal(b1-4)GlcNAc(b1-2)Man(a1-6)]Man(b1-4)GlcNAc(b1-4)GlcNAc
# Outline: as §1
# [29] = target: Fuc(a1-2)[Gal(a1-3)]Gal(b1-4)[Fuc(a1-3)]GlcNAc
# Outline: as §1
# [30] = target: Fuc(a1-2)[Gal(a1-4)]Gal(b1-4)GlcNAc
# Outline: as §1
# [31] = target: Fuc(a1-2)[GalNAc(a1-3)]Gal
# Outline: as §1
# [32] = target: Fuc(a1-2)[GalNAc(a1-3)]Gal(b1-3)GalNAc(a1-3)[Fuc(a1-2)]Gal(b1-4)GlcNAc
# Outline: as §1
# [33] = target: Fuc(a1-2)[GalNAc(a1-3)]Gal(b1-3)GlcNAc
# Outline: as §1
# [34] = target: Fuc(a1-2)[GalNAc(a1-3)]Gal(b1-3)GlcNAc(b1-2)Man(a1-3)[Fuc(a1-2)[GalNAc(a1-3)]Gal(b1-3)GlcNAc(b1-2)Man(a1-6)]Man(b1-4)GlcNAc(b1-4)GlcNAc
# Outline: as §1
# [35] = target: Fuc(a1-2)[GalNAc(a1-3)]Gal(b1-4)Glc
# Outline: as §1
# [36] = target: Fuc(a1-2)[GalNAc(a1-3)]Gal(b1-4)GlcNAc
# Outline: as §1
# [37] = target: Fuc(a1-2)[GalNAc(a1-3)]Gal(b1-4)GlcNAc(b1-2)Man(a1-3)[Fuc(a1-2)[GalNAc(a1-3)]Gal(b1-4)GlcNAc(b1-2)Man(a1-6)]Man(b1-4)GlcNAc(b1-4)GlcNAc
# Outline: as §1
# [38] = target: Fuc(a1-2)[GalNAc(a1-3)]Gal(b1-4)GlcNAc(b1-3)Gal(b1-4)GlcNAc
# Outline: as §1
# [39] = target: Fuc(a1-2)[GalNAc(a1-3)]Gal(b1-4)GlcNAc(b1-3)Gal(b1-4)GlcNAc(b1-3)Gal(b1-4)GlcNAc
# Outline: as §1
# [40] = target: Fuc(a1-2)[GalNAc(a1-3)]Gal(b1-4)[Fuc(a1-3)]GlcNAc
# Outline: as §1
# [41] = target: Fuc(a1-2)[GalNAc(a1-4)]Gal(b1-4)GlcNAc
# Outline: as §1
# [42] = target: Fuc(a1-2)[GalNAc(b1-3)]Gal
# Outline: as §1
# Fuc(a1-3)GlcNAc = target: Fuc(a1-3)GlcNAc
# Outline: as §1
# [43] = target: Fuc(a1-3)[Gal(b1-4)]Glc6S
# Outline: as §1
# [44] = target: Fuc(a1-3)[Gal(b1-4)]GlcNAc
# Outline: as §1
# [45] = target: Fuc(a1-3)[Gal(b1-4)]GlcNAc(b1-2)Man(a1-3)[Fuc(a1-3)[Gal(b1-4)]GlcNAc(b1-2)Man(a1-6)]Man(b1-4)GlcNAc(b1-4)GlcNAc
# Outline: as §1
# [46] = target: Fuc(a1-3)[Gal(b1-4)]GlcNAc(b1-3)Gal(b1-3)[Fuc(a1-4)]GlcNAc
# Outline: as §1
# [47] = target: Fuc(a1-3)[Gal(b1-4)]GlcNAc(b1-3)GalNAc
# Outline: as §1
# [48] = target: Fuc(a1-3)[Gal(b1-4)]GlcNAc(b1-4)Gal(b1-4)[Fuc(a1-3)]GlcNAc
# Outline: as §1
# [49] = target: Fuc(a1-3)[Gal(b1-4)]GlcNAc(b1-4)Gal(b1-4)[Fuc(a1-3)]GlcNAc(b1-4)Gal(b1-4)[Fuc(a1-3)]GlcNAc
# Outline: as §1
# [50] = target: Fuc(a1-3)[Gal(b1-4)]GlcNAc(b1-6)[Gal(b1-3)GlcNAc(b1-3)]Gal(b1-4)Glc
# Outline: as §1
# [51] = target: Fuc(a1-3)[Gal(b1-4)]GlcNAc6S
# Outline: as §1
binder,measurement,setting,value
B1,glycan array binding signal (z-score),Fuc(a1-2)Gal,-0.361
same,glycan array binding signal (z-score),Fuc(a1-2)Gal(b1-3)GalNAc,-0.358
same,glycan array binding signal (z-score),[1],-0.354
same,glycan array binding signal (z-score),[2],-0.363
same,glycan array binding signal (z-score),[3],-0.365
same,glycan array binding signal (z-score),[4],-0.358
same,glycan array binding signal (z-score),[5],-0.358
same,glycan array binding signal (z-score),Fuc(a1-2)Gal(b1-3)GlcNAc,-0.36
same,glycan array binding signal (z-score),[6],-0.357
same,glycan array binding signal (z-score),[7],-0.369
same,glycan array binding signal (z-score),[8],-0.364
same,glycan array binding signal (z-score),[9],-0.363
same,glycan array binding signal (z-score),[10],-0.293
same,glycan array binding signal (z-score),[11],0.366
same,glycan array binding signal (z-score),[12],0.872
same,glycan array binding signal (z-score),Fuc(a1-2)Gal(b1-4)Glc,-0.364
same,glycan array binding signal (z-score),Fuc(a1-2)Gal(b1-4)Glc6S,-0.355
same,glycan array binding signal (z-score),Fuc(a1-2)Gal(b1-4)GlcNAc,-0.364
same,glycan array binding signal (z-score),[13],-0.264
same,glycan array binding signal (z-score),[14],-0.362
same,glycan array binding signal (z-score),[15],-0.357
same,glycan array binding signal (z-score),[16],-0.36
same,glycan array binding signal (z-score),[17],-0.349
same,glycan array binding signal (z-score),[18],-0.364
same,glycan array binding signal (z-score),[19],0.123
same,glycan array binding signal (z-score),[20],-0.349
same,glycan array binding signal (z-score),[21],-0.346
same,glycan array binding signal (z-score),Fuc(a1-2)Gal6S(b1-4)Glc,-0.358
same,glycan array binding signal (z-score),[22],-0.373
same,glycan array binding signal (z-score),[23],-0.367
same,glycan array binding signal (z-score),Fuc(a1-2)[Gal(a1-3)]Gal,-0.363
same,glycan array binding signal (z-score),[24],-0.346
same,glycan array binding signal (z-score),[25],-0.079
same,glycan array binding signal (z-score),[26],-0.38
same,glycan array binding signal (z-score),[27],-0.351
same,glycan array binding signal (z-score),[28],-0.278
same,glycan array binding signal (z-score),[29],-0.343
same,glycan array binding signal (z-score),[30],-0.351
same,glycan array binding signal (z-score),[31],-0.357
same,glycan array binding signal (z-score),[32],-0.377
same,glycan array binding signal (z-score),[33],-0.377
same,glycan array binding signal (z-score),[34],-0.325
same,glycan array binding signal (z-score),[35],-0.359
same,glycan array binding signal (z-score),[36],-0.37
same,glycan array binding signal (z-score),[37],-0.309
same,glycan array binding signal (z-score),[38],-0.364
same,glycan array binding signal (z-score),[39],0.646
same,glycan array binding signal (z-score),[40],-0.359
same,glycan array binding signal (z-score),[41],0.363
same,glycan array binding signal (z-score),[42],-0.355
same,glycan array binding signal (z-score),Fuc(a1-3)GlcNAc,-0.373
same,glycan array binding signal (z-score),[43],-0.368
same,glycan array binding signal (z-score),[44],-0.365
same,glycan array binding signal (z-score),[45],-0.352
same,glycan array binding signal (z-score),[46],-0.353
same,glycan array binding signal (z-score),[47],0.996
same,glycan array binding signal (z-score),[48],-0.107
same,glycan array binding signal (z-score),[49],-0.366
same,glycan array binding signal (z-score),[50],0.089
same,glycan array binding signal (z-score),[51],1.72
